# Assay results from the supplement of paper PMC8728848.
# The list shows a part of the results.
# B1: rAAL-H59Q (Agrocybe aegerita), Q6WY08 (protein)
# chain: MQGVNIYNISAGTSVDLAAPVTTGDIVTFFSSALNLNAGAGNPNNTTLNLFAENGAYLLQIAFRLQENVIIFNSRQPDGPWLVEQRVSDVANQFAGIDGKAMVTVFDHGDKYQVVINEKTVIQYTKQISGLTLSLSYNATEETSIFSTVVEAVTYTGLALEHHHHHH
# Assays:
# Experiment in all cases: glycan array binding signal (z-score within array); higher = stronger binding
# Conditions in all cases: glycan notation: IUPAC condensed, linker removed; mutation: H59Q
# Fuc(a1-2)Gal = target: Fuc(a1-2)Gal
# How it was run: (§1)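 The binding signal is a Z-score computed within each array. Data were drawn from 3228 arrays in the Consortium for Functional Glycomics database, restricted to those with a known protein sequence. Scores were averaged over arrays of the same protein sequence at different concentrations or buffers, and over linkers, and negative values can be taken as non-binding.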
# Fuc(a1-2)Gal(b1-3)GalNAc = target: Fuc(a1-2)Gal(b1-3)GalNAc
# How it was run: as §1
# [1] = target: Fuc(a1-2)Gal(b1-3)GalNAc(a1-3)[Fuc(a1-2)]Gal(b1-4)Glc
# How it was run: as §1
# [2] = target: Fuc(a1-2)Gal(b1-3)GalNAc(a1-3)[Fuc(a1-2)]Gal(b1-4)GlcNAc
# How it was run: as §1
# [3] = target: Fuc(a1-2)Gal(b1-3)GalNAc(b1-3)Gal
# How it was run: as §1
# [4] = target: Fuc(a1-2)Gal(b1-3)GalNAc(b1-3)Gal(a1-4)Gal(b1-4)Glc
# How it was run: as §1
# [5] = target: Fuc(a1-2)Gal(b1-3)GalNAc(b1-4)[Neu5Ac(a2-3)]Gal(b1-4)Glc
# How it was run: as §1
# Fuc(a1-2)Gal(b1-3)GlcNAc = target: Fuc(a1-2)Gal(b1-3)GlcNAc
# How it was run: as §1
# [6] = target: Fuc(a1-2)Gal(b1-3)GlcNAc(b1-2)Man(a1-3)[Fuc(a1-2)Gal(b1-3)GlcNAc(b1-2)Man(a1-6)]Man(b1-4)GlcNAc(b1-4)GlcNAc
# How it was run: as §1
# [7] = target: Fuc(a1-2)Gal(b1-3)GlcNAc(b1-2)Man(a1-3)[Fuc(a1-2)Gal(b1-3)GlcNAc(b1-2)Man(a1-6)]Man(b1-4)GlcNAc(b1-4)[Fuc(a1-6)]GlcNAc
# How it was run: as §1
# [8] = target: Fuc(a1-2)Gal(b1-3)GlcNAc(b1-3)Gal(b1-4)Glc
# How it was run: as §1
# [9] = target: Fuc(a1-2)Gal(b1-3)GlcNAc(b1-3)GalNAc
# How it was run: as §1
# [10] = target: Fuc(a1-2)Gal(b1-3)GlcNAc(b1-3)[Fuc(a1-2)Gal(b1-3)GlcNAc(b1-6)]GalNAc
# How it was run: as §1
# [11] = target: Fuc(a1-2)Gal(b1-3)GlcNAc(b1-3)[Gal(b1-4)GlcNAc(b1-6)]Gal(b1-4)Glc
# How it was run: as §1
# [12] = target: Fuc(a1-2)Gal(b1-3)GlcNAc(b1-3)[Neu5Ac(a2-6)Gal(b1-4)GlcNAc(b1-6)]Gal(b1-4)Glc
# How it was run: as §1
# [13] = target: Fuc(a1-2)Gal(b1-3)GlcNAc6S
# How it was run: as §1
# [14] = target: Fuc(a1-2)Gal(b1-3)[Fuc(a1-4)]GlcNAc
# How it was run: as §1
# [15] = target: Fuc(a1-2)Gal(b1-3)[Fuc(a1-4)]GlcNAc(b1-2)Man(a1-3)[Fuc(a1-2)Gal(b1-3)[Fuc(a1-4)]GlcNAc(b1-2)Man(a1-3)]Man(b1-4)GlcNAc(b1-4)GlcNAc
# How it was run: as §1
# [16] = target: Fuc(a1-2)Gal(b1-3)[Fuc(a1-4)]GlcNAc(b1-2)Man(a1-3)[Fuc(a1-2)Gal(b1-3)[Fuc(a1-4)]GlcNAc(b1-2)Man(a1-6)]Man(b1-4)GlcNAc(b1-4)[Fuc(a1-6)]GlcNAc(b1-4)[Fuc(a1-6)]GlcNAc
# How it was run: as §1
# [17] = target: Fuc(a1-2)Gal(b1-3)[Fuc(a1-4)]GlcNAc(b1-3)[Fuc(a1-3)[Gal(b1-4)]GlcNAc(b1-6)]Gal(b1-4)Glc
# How it was run: as §1
# [18] = target: Fuc(a1-2)Gal(b1-3)[Fuc(a1-4)]GlcNAc(b1-3)[Gal(b1-4)GlcNAc(b1-6)]Gal(b1-4)Glc
# How it was run: as §1
# [19] = target: Fuc(a1-2)Gal(b1-4)Fuc(a1-3)]GlcNAc(b1-2)Man(a1-3)[Fuc(a1-2)Gal(b1-4)[Fuc(a1-3)]GlcNAc(b1-2)Man(a1-6)]Man(b1-4)GlcNAc(b1-4)GlcNAc
# How it was run: as §1
# Fuc(a1-2)Gal(b1-4)Glc = target: Fuc(a1-2)Gal(b1-4)Glc
# How it was run: as §1
# Fuc(a1-2)Gal(b1-4)Glc6S = target: Fuc(a1-2)Gal(b1-4)Glc6S
# How it was run: as §1
# Fuc(a1-2)Gal(b1-4)GlcNAc = target: Fuc(a1-2)Gal(b1-4)GlcNAc
# How it was run: as §1
# [20] = target: Fuc(a1-2)Gal(b1-4)GlcNAc(b1-2)Man
# How it was run: as §1
# [21] = target: Fuc(a1-2)Gal(b1-4)GlcNAc(b1-2)Man(a1-3)[Fuc(a1-2)Gal(b1-4)GlcNAc(b1-2)Man(a1-6)]Man(b1-4)GlcNAc(b1-4)GlcNAc
# How it was run: as §1
# [22] = target: Fuc(a1-2)Gal(b1-4)GlcNAc(b1-2)Man(a1-3)[Fuc(a1-2)Gal(b1-4)GlcNAc(b1-2)Man(a1-6)]Man(b1-4)GlcNAc(b1-4)[Fuc(a1-6)]GlcNAc
# How it was run: as §1
# [23] = target: Fuc(a1-2)Gal(b1-4)GlcNAc(b1-2)[Fuc(a1-2)Gal(b1-4)GlcNAc(b1-4)]Man(a1-3)[Fuc(a1-2)Gal(b1-4)GlcNAc(b1-2)Man(a1-6)]Man(b1-4)GlcNAc(b1-4)GlcNAc
# How it was run: as §1
# [24] = target: Fuc(a1-2)Gal(b1-4)GlcNAc(b1-3)Gal(b1-4)GlcNAc
# How it was run: as §1
# [25] = target: Fuc(a1-2)Gal(b1-4)GlcNAc(b1-3)Gal(b1-4)GlcNAc(b1-2)Man(a1-3)[Fuc(a1-2)Gal(b1-4)GlcNAc(b1-3)Gal(b1-4)GlcNAc(b1-2)Man(a1-6)]Man(b1-4)GlcNAc(b1-4)GlcNAc
# How it was run: as §1
# [26] = target: Fuc(a1-2)Gal(b1-4)GlcNAc(b1-3)Gal(b1-4)GlcNAc(b1-3)Gal(b1-4)GlcNAc
# How it was run: as §1
# [27] = target: Fuc(a1-2)Gal(b1-4)GlcNAc(b1-3)GalNAc
# How it was run: as §1
# [28] = target: Fuc(a1-2)Gal(b1-4)GlcNAc(b1-3)[Fuc(a1-2)Gal(b1-4)GlcNAc(b1-6)]GalNAc
# How it was run: as §1
# [29] = target: Fuc(a1-2)Gal(b1-4)GlcNAc(b1-3)[Fuc(a1-3)[Gal(b1-4)]GlcNAc(b1-6)]Gal(b1-4)Glc
# How it was run: as §1
# [30] = target: Fuc(a1-2)Gal(b1-4)GlcNAc(b1-6)GalNAc
# How it was run: as §1
# [31] = target: Fuc(a1-2)Gal(b1-4)GlcNAc6S
# How it was run: as §1
# [32] = target: Fuc(a1-2)Gal(b1-4)[Fuc(a1-3)]GlcNAc
# How it was run: as §1
# [33] = target: Fuc(a1-2)Gal(b1-4)[Fuc(a1-3)]GlcNAc(b1-2)Man(a1-3)[Fuc(a1-2)Gal(b1-4)[Fuc(a1-3)]GlcNAc(b1-2)Man(a1-6)]Man(b1-4)GlcNAc(b1-4)[Fuc(a1-6)]GlcNAc
# How it was run: as §1
# [34] = target: Fuc(a1-2)Gal(b1-4)[Fuc(a1-3)]GlcNAc(b1-2)[Fuc(a1-2)Gal(b1-4)[Fuc(a1-3)]GlcNAc(b1-4)]Man(a1-3)[Fuc(a1-2)Gal(b1-4)[Fuc(a1-3)]GlcNAc(b1-2)Man(a1-6)]Man(b1-4)GlcNAc(b1-4)GlcNAc
# How it was run: as §1
# [35] = target: Fuc(a1-2)Gal(b1-4)[Fuc(a1-3)]GlcNAc(b1-3)Gal(b1-4)[Fuc(a1-3)]GlcNAc
# How it was run: as §1
# [36] = target: Fuc(a1-2)Gal(b1-4)[Fuc(a1-3)]GlcNAc(b1-3)Gal(b1-4)[Fuc(a1-3)]GlcNAc(b1-3)Gal(b1-4)[Fuc(a1-3)]GlcNAc
# How it was run: as §1
# [37] = target: Fuc(a1-2)Gal(b1-4)[Fuc(a1-3)]GlcNAc(b1-3)GalNAc
# How it was run: as §1
# [38] = target: Fuc(a1-2)Gal(b1-4)[Fuc(a1-3)]GlcNAc(b1-3)[Neu5Ac(a2-6)Gal(b1-4)GlcNAc(b1-6)]Gal(b1-4)Glc
# How it was run: as §1
# [39] = target: Fuc(a1-2)Gal3S(b1-4)GlcNAc
# How it was run: as §1
binder,measurement,setting,value
B1,glycan array binding signal (z-score),Fuc(a1-2)Gal,-0.098
same,glycan array binding signal (z-score),Fuc(a1-2)Gal(b1-3)GalNAc,-0.081
same,glycan array binding signal (z-score),[1],-0.155
same,glycan array binding signal (z-score),[2],-0.081
same,glycan array binding signal (z-score),[3],-0.096
same,glycan array binding signal (z-score),[4],-0.127
same,glycan array binding signal (z-score),[5],-0.058
same,glycan array binding signal (z-score),Fuc(a1-2)Gal(b1-3)GlcNAc,-0.059
same,glycan array binding signal (z-score),[6],-0.039
same,glycan array binding signal (z-score),[7],-0.104
same,glycan array binding signal (z-score),[8],-0.028
same,glycan array binding signal (z-score),[9],-0.124
same,glycan array binding signal (z-score),[10],-0.1
same,glycan array binding signal (z-score),[11],-0.069
same,glycan array binding signal (z-score),[12],-0.08
same,glycan array binding signal (z-score),[13],0.075
same,glycan array binding signal (z-score),[14],-0.092
same,glycan array binding signal (z-score),[15],-0.014
same,glycan array binding signal (z-score),[16],-0.016
same,glycan array binding signal (z-score),[17],-0.104
same,glycan array binding signal (z-score),[18],-0.083
same,glycan array binding signal (z-score),[19],-0.035
same,glycan array binding signal (z-score),Fuc(a1-2)Gal(b1-4)Glc,-0.115
same,glycan array binding signal (z-score),Fuc(a1-2)Gal(b1-4)Glc6S,-0.072
same,glycan array binding signal (z-score),Fuc(a1-2)Gal(b1-4)GlcNAc,-0.068
same,glycan array binding signal (z-score),[20],-0.136
same,glycan array binding signal (z-score),[21],-0.063
same,glycan array binding signal (z-score),[22],0.03
same,glycan array binding signal (z-score),[23],-0.09
same,glycan array binding signal (z-score),[24],-0.144
same,glycan array binding signal (z-score),[25],-0.116
same,glycan array binding signal (z-score),[26],-0.113
same,glycan array binding signal (z-score),[27],-0.077
same,glycan array binding signal (z-score),[28],-0.088
same,glycan array binding signal (z-score),[29],-0.078
same,glycan array binding signal (z-score),[30],-0.099
same,glycan array binding signal (z-score),[31],-0.085
same,glycan array binding signal (z-score),[32],-0.09
same,glycan array binding signal (z-score),[33],0.171
same,glycan array binding signal (z-score),[34],-0.047
same,glycan array binding signal (z-score),[35],-0.063
same,glycan array binding signal (z-score),[36],-0.059
same,glycan array binding signal (z-score),[37],-0.048
same,glycan array binding signal (z-score),[38],-0.107
same,glycan array binding signal (z-score),[39],-0.159
